Values marked as one replicate rest on one cluster of the flow cell; about a third of the high ones do not repeat.
test system: ATP; experiment: switch fluorescence ratio, 500 uM ATP over buffer (Cy3 cluster intensity, sum of 5 cycles each) (fold (ratio)); higher = stronger signal-on switching upon ATP binding; sequences stand for … in TCGTCGGCAGCGTCAGATGTGTATAAGAGACAGTTTTTTTTTTTTTTTTTTTTTTTTT…TC; settings: aptamer strand: ATP DNA aptamer (quencher-CACCTGGGGGAGTATTGCGGAGGAAGG + anchor), 100 nM annealed; ATP concentration: 500 uM; one replicate
Summary of the method: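 Switching-strand clusters labelled with Cy3 on a modified Illumina MiSeq flow-cell were annealed to 100 nM quencher-labelled ATP aptamer, imaged in selection buffer, and re-imaged after 15 min with 500 uM ATP at 22 °C. This was done over five cycles with NaOH stripping and re-annealing in between. The fluorescence ratio is summed target-cycle over summed buffer-cycle Cy3 intensity per cluster, averaged per switch-domain sequence, excluding clusters outside 100-1000 RFU.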
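Also: ATP exposure 15 min at 22 °C before imaging.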

Q: How did the switch fluorescence ratio turn out when GGCAGATGGT was run?
A: 0.947

Q: For GGCAGCTATG, which switch fluorescence ratio is on record?
A: 0.969

Q: How did the switch fluorescence ratio turn out when GGCAGGAGCA was run?
A: 1.04

Q: For GGCAGGCCCG, which switch fluorescence ratio is on record?
A: 1.03

Q: With GGCAGTGGGC as the sequence, how does the switch fluorescence ratio read?
A: 1.01

Q: Which switch fluorescence ratio does the source give for GGCATAGGCA here?
A: 0.951

Q: With GGCATAGTGT as the sequence, how does the switch fluorescence ratio read?
A: 0.989

Q: With GGCATATACC as the sequence, how does the switch fluorescence ratio read?
A: 1.18

Q: GGCATTTAAG was tested. Which switch fluorescence ratio did it give?
A: 1

Q: How did the switch fluorescence ratio turn out when GGCCAAGATA was run?
A: 1.04

Q: How did the switch fluorescence ratio turn out when GGCCACAGGA was run?
A: 0.951

Q: With GGCCATCATT as the sequence, how does the switch fluorescence ratio read?
A: 1.07

Q: With GGCCATTATT as the sequence, how does the switch fluorescence ratio read?
A: 0.994

Q: For GGCCCAACAA, which switch fluorescence ratio is on record?
A: 1.06

Q: For GGCCCCCAGT, which switch fluorescence ratio is on record?
A: 1.1

Q: With GGCCCCGGAA as the sequence, how does the switch fluorescence ratio read?
A: 1.47

Q: Which switch fluorescence ratio does the source give for GGCCCCTGCG here?
A: 1.01

Q: GGCCCGGTTC was tested. Which switch fluorescence ratio did it give?
A: 1.04

Q: For GGCCCTCAAT, which switch fluorescence ratio is on record?
A: 1.06

Q: How did the switch fluorescence ratio turn out when GGCCCTGTCC was run?
A: 1.04

Q: Which switch fluorescence ratio does the source give for GGCCGAATT here?
A: 1.03

Q: With GGCCGATCAG as the sequence, how does the switch fluorescence ratio read?
A: 0.993

Q: With GGCCGCAGAA as the sequence, how does the switch fluorescence ratio read?
A: 1.14

Q: GGCCGCCGGT was tested. Which switch fluorescence ratio did it give?
A: 1.03

Q: How did the switch fluorescence ratio turn out when GGCCGCTGTG was run?
A: 1.03

Q: For GGCCGGCACA, which switch fluorescence ratio is on record?
A: 0.986

Q: For GGCCGGCCGT, which switch fluorescence ratio is on record?
A: 0.977

Q: Which switch fluorescence ratio does the source give for GGCCGGGTCA here?
A: 0.946

Q: Which switch fluorescence ratio does the source give for GGCCGTAAGG here?
A: 0.991

Q: With GGCCGTAAGT as the sequence, how does the switch fluorescence ratio read?
A: 0.987

Q: GGCCGTGCC was tested. Which switch fluorescence ratio did it give?
A: 0.98

Q: For GGCCGTGTCC, which switch fluorescence ratio is on record?
A: 0.957

Q: For GGCCTCATTT, which switch fluorescence ratio is on record?
A: 1

Q: With GGCCTGTCAT as the sequence, how does the switch fluorescence ratio read?
A: 0.996

Q: How did the switch fluorescence ratio turn out when GGCCTTTCCA was run?
A: 1.06

Q: GGCGACCAGG was tested. Which switch fluorescence ratio did it give?
A: 1.03

Q: For GGCGACCCCA, which switch fluorescence ratio is on record?
A: 1.4

Q: How did the switch fluorescence ratio turn out when GGCGACTAG was run?
A: 0.973

Q: GGCGAGGGCA was tested. Which switch fluorescence ratio did it give?
A: 1.04

Q: With GGCGAGGGGT as the sequence, how does the switch fluorescence ratio read?
A: 1.02

Q: How did the switch fluorescence ratio turn out when GGCGAGTAGG was run?
A: 0.998

Q: For GGCGATAGCG, which switch fluorescence ratio is on record?
A: 1.01

Q: With GGCGATCAAG as the sequence, how does the switch fluorescence ratio read?
A: 0.983

Q: GGCGATCATG was tested. Which switch fluorescence ratio did it give?
A: 0.986

Q: How did the switch fluorescence ratio turn out when GGCGATCCGC was run?
A: 1.01

Q: With GGCGATCGAT as the sequence, how does the switch fluorescence ratio read?
A: 1.03

Q: Which switch fluorescence ratio does the source give for GGCGATGTAG here?
A: 1

Q: How did the switch fluorescence ratio turn out when GGCGATTAAT was run?
A: 1.08

Q: For GGCGCAACTA, which switch fluorescence ratio is on record?
A: 1.38

Q: GGCGCAGGG was tested. Which switch fluorescence ratio did it give?
A: 1.2

Q: For GGCGCATAAG, which switch fluorescence ratio is on record?
A: 1.06

Q: With GGCGCGTAGT as the sequence, how does the switch fluorescence ratio read?
A: 1.26

Q: Which switch fluorescence ratio does the source give for GGCGCTAAGA here?
A: 0.987

Q: GGCGCTACTT was tested. Which switch fluorescence ratio did it give?
A: 0.991

Q: How did the switch fluorescence ratio turn out when GGCGCTGCTG was run?
A: 0.988

Q: For GGCGCTGTCA, which switch fluorescence ratio is on record?
A: 0.998

Q: GGCGCTTTTT was tested. Which switch fluorescence ratio did it give?
A: 1.01

Q: GGCGGGGAAC was tested. Which switch fluorescence ratio did it give?
A: 0.981

Q: With GGCGGGTTCT as the sequence, how does the switch fluorescence ratio read?
A: 1.02

Q: How did the switch fluorescence ratio turn out when GGCGGTCGG was run?
A: 0.983

Q: How did the switch fluorescence ratio turn out when GGCGGTGACT was run?
A: 1.03

Q: Which switch fluorescence ratio does the source give for GGCGGTGAGT here?
A: 1.02

Q: For GGCGGTGGGG, which switch fluorescence ratio is on record?
A: 1.04

Q: How did the switch fluorescence ratio turn out when GGCGTAACCA was run?
A: 0.981

Q: For GGCGTATATA, which switch fluorescence ratio is on record?
A: 0.989

Q: For GGCGTCCCTT, which switch fluorescence ratio is on record?
A: 1.02

Q: How did the switch fluorescence ratio turn out when GGCGTCGTTC was run?
A: 0.976

Q: For GGCGTGGGCA, which switch fluorescence ratio is on record?
A: 0.981

Q: Which switch fluorescence ratio does the source give for GGCGTGGTAT here?
A: 1.5

Q: For GGCGTGGTCG, which switch fluorescence ratio is on record?
A: 1.05

Q: For GGCGTTAGGC, which switch fluorescence ratio is on record?
A: 1

Q: Which switch fluorescence ratio does the source give for GGCGTTCAGA here?
A: 0.992

Q: For GGCGTTCCTC, which switch fluorescence ratio is on record?
A: 1.51

Q: How did the switch fluorescence ratio turn out when GGCGTTGGAA was run?
A: 0.975

Q: Which switch fluorescence ratio does the source give for GGCGTTGTGA here?
A: 1

Q: Which switch fluorescence ratio does the source give for GGCGTTTCTG here?
A: 0.982

Q: For GGCTAAATAT, which switch fluorescence ratio is on record?
A: 1.02

Q: GGCTAACACG was tested. Which switch fluorescence ratio did it give?
A: 1.01

Q: With GGCTAACCGG as the sequence, how does the switch fluorescence ratio read?
A: 1.01

Q: Which switch fluorescence ratio does the source give for GGCTAAGTAA here?
A: 1.03

Q: Which switch fluorescence ratio does the source give for GGCTACGTCG here?
A: 1.03

Q: With GGCTAGGATA as the sequence, how does the switch fluorescence ratio read?
A: 0.993

Q: With GGCTAGTCGC as the sequence, how does the switch fluorescence ratio read?
A: 0.982

Q: How did the switch fluorescence ratio turn out when GGCTATGACC was run?
A: 1.02

Q: GGCTATTTCA was tested. Which switch fluorescence ratio did it give?
A: 1.01

Q: GGCTCACAAT was tested. Which switch fluorescence ratio did it give?
A: 1.04

Q: Which switch fluorescence ratio does the source give for GGCTCAGCTA here?
A: 1.13

Q: With GGCTCCAC as the sequence, how does the switch fluorescence ratio read?
A: 1.07

Q: For GGCTCTGGTG, which switch fluorescence ratio is on record?
A: 1.24

Q: GGCTCTGTCT was tested. Which switch fluorescence ratio did it give?
A: 0.983

Q: With GGCTCTTGCC as the sequence, how does the switch fluorescence ratio read?
A: 1

Q: Which switch fluorescence ratio does the source give for GGCTGCTTTT here?
A: 1

Q: Which switch fluorescence ratio does the source give for GGCTGTACAG here?
A: 0.932

Q: How did the switch fluorescence ratio turn out when GGCTTAGGTT was run?
A: 0.98

Q: How did the switch fluorescence ratio turn out when GGCTTCATTC was run?
A: 1.05

Q: For GGCTTCCGA, which switch fluorescence ratio is on record?
A: 2.28

Q: GGCTTGAAAG was tested. Which switch fluorescence ratio did it give?
A: 1.04

Q: GGCTTGGGCC was tested. Which switch fluorescence ratio did it give?
A: 0.97

Q: Which switch fluorescence ratio does the source give for GGCTTGGTTG here?
A: 0.992

Q: GGCTTTAATA was tested. Which switch fluorescence ratio did it give?
A: 0.956

Reference: the supplement of paper PMC10126150
